Where “and” joins values, the source holds several entries; their conditions need not be identical. Equal values may be shown once. Among all 420,000 compounds or so, about 50,000 (12%) were called active. The shares of active, inactive and inconclusive entries below differ from those in the screen. Calls follow the shape of the dose curve; as a rule, active = well fitted inhibition curve with a large enough effect; inconclusive = small, poorly fitted or top-dose-only effect; inactive = flat fitted curve, though single readings scatter. A potency beside an inconclusive call is a rough fit, not a confirmed value.
test: qHTS for Inhibitors of human tyrosyl-DNA phosphodiesterase 1 (TDP1): qHTS in cells in presence of CPT; conditions: chicken DT40 Tdp1-/-;hTDP1 cells + 20 nM CPT, ATP luminescence, 48 h; activity change, negative = growth inhibition: at 46.2 µM (top of the series) unless noted; also: nearly all actives have a fitted effect of over 55% in size
How it was run: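 Chicken DT40 Tdp1-/- cells complemented with human TDP1, 400 cells/well, exposed to compounds plus 20 nM camptothecin for at least 48 h at 37 C; viability read as ATP content by CellTiter-Glo luminescence.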
% is scaled to controls: 0 for no effect and ±100 for the full control effect; potency is read from the fitted curve at half-maximal effect; tags tell the direction and shape of the fitted curve.

Row | Compound | activity change, negative = growth inhibition | Potency
1 | C=CCN(Cc1nc(-c2ccc(OC)c(OC)c2)oc1C)C1CCS(=O)(=O)C1 (centres undefined) | inactive: 4.93% | 
2 | N#Cc1nc(Cc2ccccc2)oc1N1CCN(c2cccc(Cl)c2)CC1 |  | inconclusive: 11.2 µM [inhibitor, partial curve]
3 | CCCCN(C)CCCNC(=O)C1CCN(S(=O)(=O)CC)CC1 | inactive: -5.95% | 
4 | CCOC(=O)c1ccc(S(=O)(=O)Nc2cc(C(=O)O)ccc2Cl)cc1 | inactive: -4.88% | 
5 | Cc1ccccc1NCC(=O)Nc1cc(S(=O)(=O)N2CCCCC2)ccc1C |  | inconclusive: 16.4 µM [inhibitor, single point]
6 | CCOCCCn1c(=S)[nH]c2cc(C(=O)N3CCOCC3)ccc2c1=O | inactive: -0.398% | 
7 | O=C(NCCN1CCN(c2cccc(Cl)c2)CC1)c1ccc(CSc2nc3ccncc3[nH]2)cc1 |  | inconclusive: 20.6 µM [inhibitor, single point]
8 | COc1ccc(/C(C)=N\NC(=O)CNC(=O)C(c2ccccc2)c2ccccc2)cc1OC |  | inconclusive: 29.1 µM [inhibitor, single point]
9 | CC(=O)c1c(C)n([O-])c2ccccc2[n+]1=O |  | inconclusive: 29.1 µM [inhibitor, single point]
10 | Cc1cccc2nc(CNC(=O)CN3Cc4ccccc4OC(c4ccccc4F)C3)cn12 (centres undefined) | inactive: 7.16% [at 9.04 µM] | 
11 | CC(=O)C1=C(c2ccccc2)N(C(C)=O)n2c(nnc2C2CCCCC2)S1 |  | inconclusive: 6.51 µM [inhibitor, full curve, poor fit]
12 | O=C(NCC1CCCO1)c1ccc(NC(=O)C2C3C=CC(C3)C2C(=O)O)cc1 (centres undefined) | inactive: -3.51% | 
13 | O=[N+]([O-])c1ccc(SNc2ccccc2)c([N+](=O)[O-])c1 |  | inconclusive: 29.1 µM [inhibitor, single point]
14 | CCCC1=Nc2cc(C(=O)NCc3ccco3)ccc2Sc2ccccc21 |  | inconclusive: 3.66 µM [inhibitor, full curve, poor fit]
15 | CCN(C1CCCCC1)S(=O)(=O)CCNC(=O)c1ccc(OC)cc1 |  | inconclusive: 11.6 µM [inhibitor, partial curve, poor fit]
16 | CCOc1cc(N2CCOCC2)c(OCC)cc1NC(=O)COC(=O)c1c(C)noc1C |  | inconclusive: 23.1 µM [inhibitor, single point]
17 | CC1CCc2cc(F)ccc2N1C(=O)c1cc2nc(-c3ccco3)cc(C(F)(F)F)n2n1 (centres undefined) |  | inconclusive: 29.1 µM [inhibitor, single point]
18 | CSc1ncc(Cl)c(C(=O)Nc2ccc(S(=O)(=O)Nc3nccc(C)n3)cc2)n1 |  | inconclusive: 20.6 µM [inhibitor, partial curve] and inconclusive: 13 µM [inhibitor, partial curve]
19 | COc1cc2nc(NC(=O)c3ccccc3)[nH]c(=O)c2cc1OC |  | inconclusive: 23.1 µM [inhibitor, partial curve]
20 | O=C(CSc1nnc(NC(=O)c2ccco2)s1)Nc1ccc(F)cc1F | inactive: 1.47% | 
21 | O=[N+]([O-])c1ccc(NNC(=S)Nc2ccccc2)cc1 |  | active: 4.47 µM
22 | c1ccc(Oc2nc(Oc3ccccc3)nc(N3CCOCC3)n2)cc1 |  | inconclusive: 23.1 µM [inhibitor, single point]

Row | Compound | activity change, negative = growth inhibition | Potency
23 | COc1ccc(-c2sc(Nc3ccccc3)n[n+]2-c2ccc(F)cc2)c(OC)c1OC |  | inconclusive: 20.6 µM [inhibitor, partial curve, poor fit]
24 | Nc1nc2c(s1)CCc1c-2cnn1-c1ccccc1 |  | active: 7.94 µM and active: 14.6 µM
25 | c1csc(-c2nn3c(Cn4cnc5ccccc54)nnc3s2)c1 |  | inconclusive: 18.4 µM [inhibitor, single point]
26 | COc1c(Cl)cnn(-c2ccc(Cl)c(Cl)c2)c1=O | inactive: 3.49% | 
27 | CCCCN(CCCC)c1nc(-c2ccncc2)nc2ccccc12 |  | inconclusive: 18.4 µM [inhibitor, single point]
28 | COc1ccc(CCn2c(=S)[nH]c(=O)c3c(C)cc(C)nc32)cc1OC | inactive: 1.67% | 
29 | CCC(C(=O)Nc1cccc(S(=O)(=O)N(C)c2ccccc2)c1)c1ccccc1 (centres undefined) |  | active: 18.4 µM
30 | COC(=O)C1=C(C)n2nnnc2NC1c1cc2ccccc2o1 (centres undefined) |  | inconclusive: 14.6 µM [inhibitor, single point]
31 | COc1ccc(CCNC(=O)c2cc3n(n2)CCCN(Cc2ccc(C)cc2)C3=O)cc1OC |  | inconclusive: 25.9 µM [inhibitor, single point]
32 | Cc1ccc(N=Nc2c(O)[nH]c3ccc(F)cc23)cc1 | inactive: 0.788% | 
33 | O=C(NCc1ccccn1)C(=O)NCC1OCCN1S(=O)(=O)c1ccc(Cl)cc1 (centres undefined) | inactive: 10.3% | 
34 | CC1CN(C(=O)c2ccc(COc3ccc4ccccc4c3)o2)CC(C)O1 (centres undefined) |  | inconclusive: 18.4 µM [inhibitor, single point]
35 | CCCCn1c(N)c(N(CCC(C)C)C(=O)CN2C(=O)C3CCCCC3C2=O)c(=O)[nH]c1=O (centres undefined) | inactive: -21.9% | 
36 | Cc1cc(C)cc(-n2cnc3cc(C(=O)NC4CCCCCC4)ccc32)c1 |  | inconclusive: 29.1 µM [inhibitor, single point]
37 | CCC(C)(C)NC(=O)C(c1ccc(OC)cc1)N(Cc1cccs1)C(=O)CCC(=O)Nc1cc(C)on1 (centres undefined) |  | active: 18.4 µM
38 | Cc1ccc(CCNC(=O)c2ccc3[nH]c(C)c(C)c3c2)cc1 |  | inconclusive: 29.1 µM [inhibitor, single point]
39 | Cc1cc(OCC(=O)NC2CCN(Cc3ccccc3)CC2)c2c(C)cc(=O)oc2c1 |  | inconclusive: 29.1 µM [inhibitor, single point]
40 | Cc1ccc(NC(=O)Cc2ccccc2)cc1S(=O)(=O)N1CCOCC1 | inactive: -21.4% | 
41 | O=S1(=O)CC(N2CCN(Cc3ccccc3F)CC2)CN1Cc1cn(Cc2ccc(Cl)cc2)nn1 (centres undefined) |  | active: 18.4 µM
42 | Cn1cccc1Cc1nnc(SCC(=O)NC2CCCCC2)n1-c1ccc(F)cc1 |  | inconclusive: 32.6 µM [inhibitor, single point]
43 | CCOc1ccc(CCNC(=O)CSCC(=O)Nc2cccc(C)c2)cc1OCC |  | inconclusive: 16.4 µM [inhibitor, single point]
44 | O=C(Nc1ccn(CCCNCc2cccc3ccccc23)c(=O)n1)OCc1ccccc1 |  | inconclusive: 29.1 µM [inhibitor, single point]

From PubChem BioAssay AID686979 (National Center for Advancing Translational Sciences (NCATS), 2013)
